# According to the supplement of paper PMC10126150:
# Values marked as one replicate rest on one cluster of the flow cell; about a third of the high ones do not repeat.
# Tested on: ATP
# Assay: switch fluorescence ratio, 500 uM ATP over buffer (Cy3 cluster intensity, sum of 5 cycles each) (fold (ratio)); higher = stronger signal-on switching upon ATP binding; sequences stand for … in TCGTCGGCAGCGTCAGATGTGTATAAGAGACAGTTTTTTTTTTTTTTTTTTTTTTTTT…TC
# Conditions: aptamer strand: ATP DNA aptamer (quencher-CACCTGGGGGAGTATTGCGGAGGAAGG + anchor), 100 nM annealed; ATP concentration: 500 uM; one replicate
# Method in brief: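 Between each of five buffer/ATP cycles, the flow-cell was stripped with NaOH and re-annealed. Each cycle imaged Cy3-labelled switching-strand clusters, annealed to 100 nM quencher-labelled ATP aptamer on a modified Illumina MiSeq flow-cell, first in selection buffer and then after 15 min with 500 uM ATP at 22 °C. The fluorescence ratio is summed target-cycle over summed buffer-cycle Cy3 intensity per cluster, averaged per switch-domain sequence, with clusters outside 100-1000 RFU excluded.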
# 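Further: ATP exposure 15 min at 22 °C before imaging.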
row,Sequence,switch fluorescence ratio
1,TTCGTGCCTG,1.03
2,TTCGTTAGGC,1.01
3,TTCGTTGGTC,0.946
4,TTCTAACCTC,1.04
5,TTCTAGGG,0.94
6,TTCTAGGGGC,1.2
7,TTCTAGTGCT,0.996
8,TTCTATAACT,1.02
9,TTCTATACCA,0.957
10,TTCTATCTTT,0.973
11,TTCTATGGGC,1.04
12,TTCTATTGC,1.07
13,TTCTCAGGAA,1.23
14,TTCTCAGGTA,1.06
15,TTCTCATCAT,1
16,TTCTCATTAC,1.32
17,TTCTCGTAAG,0.965
18,TTCTGAACTG,0.991
19,TTCTGAGACT,1.02
20,TTCTGATTTG,1
21,TTCTGCAGTT,4.48
22,TTCTGCTTCT,1.03
23,TTCTGCTTTT,1.2
24,TTCTGGAGTA,1.07
25,TTCTGGCACC,0.969
26,TTCTGGGAT,1.01

row,Sequence,switch fluorescence ratio
1,TTCTGGGGTT,1.05
2,TTCTGTCGGA,0.989
3,TTCTGTTATG,1.05
4,TTCTGTTTC,1
5,TTCTGTTTTC,1.03
6,TTCTTAAGTT,1.02
7,TTCTTAGAAG,1.03
8,TTCTTCAACG,1.05
9,TTCTTGAAGA,1.02
10,TTCTTGGCCT,1.01
11,TTGAACACTT,0.97
12,TTGAACGACG,0.971
13,TTGAACGCAG,1.11
14,TTGAACTCTG,0.972
15,TTGAAGTTCC,1.12
16,TTGAATATA,0.962
17,TTGAATCACT,1.02
18,TTGAATCCCG,0.999
19,TTGAATGGAA,1
20,TTGACAATGC,2.12
21,TTGACAGAGG,1.01
22,TTGACAGCC,1.14
23,TTGACATCCG,1.03
24,TTGACGGGG,0.973
25,TTGACGGTTA,0.988
26,TTGACGTCCA,1.36

row,Sequence,switch fluorescence ratio
1,TTGACTCGTA,0.992
2,TTGACTGTAC,1.65
3,TTGAGACCAG,1
4,TTGAGAGTAG,0.955
5,TTGAGATGAA,1.06
6,TTGAGATGAT,0.982
7,TTGAGCGACG,1.06
8,TTGAGCGCTT,1.02
9,TTGAGCGGTG,1.02
10,TTGAGGCAAG,1.23
11,TTGAGGCTCT,0.975
12,TTGAGGTCTC,0.969
13,TTGAGGTGT,1
14,TTGAGTAACA,1.03
15,TTGAGTATCG,0.991
16,TTGAGTGGGG,0.994
17,TTGAGTTAA,0.989
18,TTGAGTTACG,1.02
19,TTGAGTTCA,1.02
20,TTGAGTTGAA,0.991
21,TTGATAATTG,0.997
22,TTGATCCGCA,3.68
23,TTGATCGCTG,0.981
24,TTGATGAAAC,1.21
25,TTGATGAGAT,1.06
26,TTGATGGGCT,0.964

row,Sequence,switch fluorescence ratio
1,TTGATTACTG,1.06
2,TTGATTAGGG,0.973
3,TTGATTGGTT,1.05
4,TTGATTTCTG,1.04
5,TTGCAAACGG,0.985
6,TTGCACGACC,1.24
7,TTGCACTAAG,0.997
8,TTGCACTCGG,1
9,TTGCAGAGAT,1.01
10,TTGCAGGAAG,0.98
11,TTGCAGGATC,1.02
12,TTGCAGGCAC,1.02
13,TTGCAGGGTT,1.07
14,TTGCATATTG,1.06
15,TTGCATGACA,1.02
16,TTGCATGCAC,0.985
17,TTGCATTCCG,1.12
18,TTGCCAAATA,0.966
19,TTGCCAGATG,1.06
20,TTGCCCAAAA,1.04
21,TTGCCCCCGT,1.01
22,TTGCCGGCC,1.03
23,TTGCCGGTTG,0.975
